Experimental data taken from the supplement of paper PMC12645437, “Orthogonal IMiD-Degron Pairs Induce Selective Protein Degradation in Cells” (ACS Chemical Biology, 2025).
This is one part of the list.

Each sequence was assayed against no compound (DMSO) (assay: log2 fold change of degron read counts, EGFP-low vs EGFP+ sorted cells; higher = lower degron-EGFP level without compound (poor expression or instability)). Details: compound: DMSO control; 18 h.
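Further: jurkat cells carrying a lentiviral library of mutant zinc finger degrons fused to EGFP plus mCherry, mCherry+ cells FACS sorted, degron abundance counted by next-generation sequencing.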

Row | Sequence | log2 fold change of degron read counts
1 | FNCDVCGAAFTQKGNLLRHIKL | -1.37
2 | FICNVCGAYFTQKGNLLRHIKL | -0.114
3 | FDCPVCGALFTQKGNLLRHIKL | -0.543
4 | FACEICGARFTQKGNLLRHIKL | -0.785
5 | LVCPICGFCCTQKGNLLRHIKL | 1.03
6 | FHCEVCGATFTQKGNLLRHIKL | -1.83
7 | FDCEVCGAFFTQKGNLLRHIKL | -0.1
8 | FMCPQCGAEFTQKGNLLRHIKL | -1.65
9 | FECEQCGATFTQKGNLLRHIKL | -2.16
10 | FRCNQCGAQFTQKGNLLRHIKL | -1.01
11 | FFCPICGAHFTQKGNLLRHIKL | 0.474
12 | FDCNQCGRLFTQKGNLLRHIKL | 1.16
13 | FSCDVCGAFFTQKGNLLRHIKL | -0.533
14 | FGCPQCGAIFTQKGNLLRHIKL | -0.202
15 | FCCDICGACFTQKGNLLRHIKL | -1.58
16 | FICPQCGASFTQKGNLLRHIKL | -1.06

Row | Sequence | log2 fold change of degron read counts
17 | LSCEICGFICTQKGNLLRHIKL | 0.662
18 | LRCPICGFVCTQKGNLLRHIKL | 1.11
19 | FKCNQCGHMFTQKGNLLRHIKL | -0.488
20 | FTCPICGHHFTQKGNLLRHIKL | -0.546
21 | FRCSVCGHIFTQKGNLLRHIKL | 0.0801
22 | FLCSVCGHFFTQKGNLLRHIKL | 1.4
23 | FQCPVCGADFTQKGNLLRHIKL | -1.35
24 | FACPVCGAQFTQKGNLLRHIKL | -0.697
25 | FNCPICGHIFTQKGNLLRHIKL | 0.249
26 | FECPICGRRFTQKGNLLRHIKL | -0.157
27 | LHCPICGFKCTQKGNLLRHIKL | 0.266
28 | FVCNVCGADFTQKGNLLRHIKL | -1.48
29 | FHCNVCGANFTQKGNLLRHIKL | -0.255
30 | FCCPICGHTFTQKGNLLRHIKL | -1.02
31 | FVCEICGRLFTQKGNLLRHIKL | -0.245
32 | FSCSVCGHTFTQKGNLLRHIKL | -0.887
